# From PMC4336329 (PLoS ONE, 2015)
# Out of some 310,000 compounds screened, about 14,000 (4.5%) showed an effect of 50% or more. The effect is printed as a negative number. Some of the results follow.
# Biological target: human ether-à-go-go-related gene (hERG) potassium channel (human, UniProt Q12809)
# Assay: primary screen, population patch clamp on CHO cells stably expressing hERG
# 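Also: peak tail current of the secondary pulse compared with the same well before compound.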
# human ether-à-go-go-related gene (hERG) potassium channel, sequence (Q12809 whole entry, looked up): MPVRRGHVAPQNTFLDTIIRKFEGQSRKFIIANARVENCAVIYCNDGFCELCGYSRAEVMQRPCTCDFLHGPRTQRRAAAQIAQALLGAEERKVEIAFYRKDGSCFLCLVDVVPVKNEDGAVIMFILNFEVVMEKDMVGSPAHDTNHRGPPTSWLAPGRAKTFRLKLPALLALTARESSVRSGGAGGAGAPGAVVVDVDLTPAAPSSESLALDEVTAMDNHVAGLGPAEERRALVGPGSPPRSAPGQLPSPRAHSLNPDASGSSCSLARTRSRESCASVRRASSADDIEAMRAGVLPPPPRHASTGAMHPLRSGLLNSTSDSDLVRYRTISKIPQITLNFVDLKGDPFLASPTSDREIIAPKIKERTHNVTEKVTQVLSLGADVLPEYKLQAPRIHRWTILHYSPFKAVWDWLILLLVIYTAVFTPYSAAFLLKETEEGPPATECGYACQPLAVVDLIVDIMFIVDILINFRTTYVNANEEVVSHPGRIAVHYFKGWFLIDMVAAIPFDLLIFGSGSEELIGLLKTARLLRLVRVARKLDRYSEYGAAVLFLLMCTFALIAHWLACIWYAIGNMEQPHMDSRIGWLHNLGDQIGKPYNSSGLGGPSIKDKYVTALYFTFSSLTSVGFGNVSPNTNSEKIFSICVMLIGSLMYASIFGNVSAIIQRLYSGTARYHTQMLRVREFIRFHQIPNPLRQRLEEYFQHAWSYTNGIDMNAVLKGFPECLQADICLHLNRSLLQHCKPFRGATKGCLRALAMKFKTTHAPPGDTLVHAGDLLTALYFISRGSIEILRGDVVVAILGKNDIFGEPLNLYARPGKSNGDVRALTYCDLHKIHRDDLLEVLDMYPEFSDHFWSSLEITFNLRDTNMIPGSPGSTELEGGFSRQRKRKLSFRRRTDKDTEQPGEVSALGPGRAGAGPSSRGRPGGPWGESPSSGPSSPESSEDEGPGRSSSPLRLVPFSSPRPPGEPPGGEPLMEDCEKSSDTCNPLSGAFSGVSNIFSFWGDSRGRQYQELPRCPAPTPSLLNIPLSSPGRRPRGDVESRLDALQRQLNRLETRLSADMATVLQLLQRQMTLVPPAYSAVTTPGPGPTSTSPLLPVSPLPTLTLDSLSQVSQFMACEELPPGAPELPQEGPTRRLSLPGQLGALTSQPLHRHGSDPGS
row,SMILES,"hERG current change (%, negative = inhibition) at 10uM"
1,O=C(COC(=O)c1cccnc1)Nc1ccccc1,1.69%
2,COC(=O)c1cnc(Oc2ccc(NC(=O)NC(=O)c3ccccc3Cl)cc2)cc1C(F)(F)F,8.39%
3,COc1ccc2c(=O)c(C(=O)NCCc3ccc(OC)c(OC)c3)c[nH]c2c1,-0.661%
4,Cc1ccc(C(CC(=O)O)NC(=O)c2ccc(S(=O)(=O)N3CC(C)OC(C)C3)cc2)cc1 (stereo not drawn),-0.567%
5,CCC(=O)Nc1ccccc1Sc1ncnc2scc(-c3ccccc3)c12,-4.45%
6,CN(C)CCNC(=O)c1cc2cc(Br)ccc2oc1=O,-12%
7,COc1cccc2cc(/C(C)=N/Nc3nc(-c4cc(C)ccc4C)cs3)c(=O)oc12,10.5%
8,N#Cc1c2c(c(-c3ccco3)[nH]c1=O)CCCC2,-0.163%
9,COc1ccccc1N1C(=O)[C@@H]2C(C(=O)CN3C(=O)c4ccccc4C3=O)=NN[C@@H]2C1=O,1.65%
10,O=C(Cn1c2ccccc2c(=O)c2ccccc21)N/N=C/c1cc([N+](=O)[O-])ccc1N1CCCCC1,-6.1%
11,CCOc1ccccc1N1CCN(C(=O)CNC(=O)c2ccccc2F)CC1,-51.1%
12,Cc1ccc(NC(=O)COC(=O)CSC(=S)N2CCOCC2)cc1,16.6%
13,C/C(=N\N=C(N)N)c1cc(Cl)ccc1Cl.CC(=O)O,-11.1%
14,CCOC(=O)C1=NN(C(=O)Nc2cccc(C(F)(F)F)c2)C2C(=O)N(c3cccc(C(F)(F)F)c3)C(=O)C12 (stereo not drawn),9.89%
15,COc1ccc(S(=O)(=O)N2CCCCCC2)cc1NC(=O)Cc1ccccc1F,-36.8%
16,Cc1cccc(-n2c(SCc3cc(=O)n4ccsc4n3)nc3ccccc3c2=O)c1,-5.76%
17,COCC(C)NC(=O)c1cc(-c2ccc(OC)c(OC)c2)on1 (stereo not drawn),-3.43%
18,Cc1c(Br)c(=O)oc2c(C)c(O)ccc12,-10.2%
19,O=C(COc1ccccc1)NC1CCCCCCC1,-4.51%
20,COc1ccc(/C=N/n2c(-c3ccc(C)cc3)n[nH]c2=S)cc1OC,8.36%
21,CCN(CC)P(=O)(/C(Cl)=C\Nc1c(C)n(C)n(-c2ccccc2)c1=O)N(CC)CC,-17.6%

row,SMILES,"hERG current change (%, negative = inhibition) at 10uM"
1,CCc1ccc(-n2c(Cn3nc(C(F)(F)F)cc3C)n[nH]c2=S)cc1,10.1%
2,Cc1ccc(-c2noc(CCCc3ccccc3)n2)cc1,5.95%
3,CCCCOC(=O)C[N+](C)(C)CCOC1CC2CCC1(C)C2(C)C.[Br-] (stereo not drawn),-52.7%
4,CS(=O)(=O)N(Cc1ccc(C(=O)NCc2ccco2)cc1)c1ccccc1,-7.93%
5,Cn1c(NCc2ccco2)nc2c1c(=O)n(Cc1ccc(Cl)cc1)c(=O)n2C,12%
6,CC(=O)c1ccc(N(CC(=O)NC2CCCC2)C(=O)CCC(=O)Nc2cc(C)on2)cc1,1.93%
7,Cc1ccc(CNC(=O)COC(=O)c2c(C)noc2C)cc1,3.34%
8,Cc1sc2cc3c(c(C(=O)c4ccccc4)[n+]2c1C)-c1cccc2cccc-3c12.[Br-],-77.1%
9,O=C(c1ccc(COc2ccccc2Cl)o1)N1CCN(c2ccccc2)CC1,-24.1%
10,O=C(CSc1nnc(-c2ccc(F)cc2)c2ccccc12)Nc1ccccc1Cl,-8.52%
11,c1ccc(-n2nnnc2-c2cnc(-c3ccncc3)nc2-c2cccs2)cc1,-30.9%
12,CCC(=O)Nc1cccc(NC(=S)NC(=O)c2cccs2)c1,3.59%
13,O=C(/C=C/c1cc([N+](=O)[O-])ccc1OC(F)F)Nc1cccc(OC(F)F)c1,-0.988%
14,CC(=O)C1CCCN(C(=O)c2ccc3oc(CCc4ccccc4)nc3c2)C1 (stereo not drawn),-14.2%
15,CC1CCCCC1NC(=O)CN(C)S(=O)(=O)c1ccc2c(c1)c(=O)n(C)c(=O)n2C (stereo not drawn),-5.53%
16,COc1ccccc1NC(=O)c1cc(S(=O)(=O)NC2CCCC2)ccc1F,11.7%
17,CCCCN(C(=O)NCCCCCCNC(=O)N(CCCC)C1CCS(=O)(=O)C1)C1CCS(=O)(=O)C1 (stereo not drawn),30.2%
18,COc1ccc(NC(=O)CC2SC(=O)NC2=O)cc1 (stereo not drawn),26.8%
19,COc1ccc(F)cc1S(=O)(=O)Nc1cc2c3c(c1)CCC(=O)N3CCC2,9.43%
20,CC(C)(C)c1[nH]nc2c1C(c1ccco1)C(C#N)=C(N)O2 (stereo not drawn),2.69%
21,O=C(NCc1ccco1)C1CCN(c2ccc(S(=O)(=O)N3CCOCC3)cc2[N+](=O)[O-])CC1,-70%
